Laboratory results from the supplement of paper PMC3334620.
Over roughly 33,000 sequences, “E-score (-0.5 to 0.5)” has its median near -0.032; the highest 2% begin near 0.36. The list shows a part of the results.

What follows are sequences tested against T1, Sko1 (UniProt Q02100) (assay: PBM E-score (8-mer binding enrichment) (E-score (-0.5 to 0.5)); higher = stronger / more preferred TF binding; most listed sequences are background and not binding sites). Details: protein concentration: 200 nM; construct: GST-full length.
T1 sequence: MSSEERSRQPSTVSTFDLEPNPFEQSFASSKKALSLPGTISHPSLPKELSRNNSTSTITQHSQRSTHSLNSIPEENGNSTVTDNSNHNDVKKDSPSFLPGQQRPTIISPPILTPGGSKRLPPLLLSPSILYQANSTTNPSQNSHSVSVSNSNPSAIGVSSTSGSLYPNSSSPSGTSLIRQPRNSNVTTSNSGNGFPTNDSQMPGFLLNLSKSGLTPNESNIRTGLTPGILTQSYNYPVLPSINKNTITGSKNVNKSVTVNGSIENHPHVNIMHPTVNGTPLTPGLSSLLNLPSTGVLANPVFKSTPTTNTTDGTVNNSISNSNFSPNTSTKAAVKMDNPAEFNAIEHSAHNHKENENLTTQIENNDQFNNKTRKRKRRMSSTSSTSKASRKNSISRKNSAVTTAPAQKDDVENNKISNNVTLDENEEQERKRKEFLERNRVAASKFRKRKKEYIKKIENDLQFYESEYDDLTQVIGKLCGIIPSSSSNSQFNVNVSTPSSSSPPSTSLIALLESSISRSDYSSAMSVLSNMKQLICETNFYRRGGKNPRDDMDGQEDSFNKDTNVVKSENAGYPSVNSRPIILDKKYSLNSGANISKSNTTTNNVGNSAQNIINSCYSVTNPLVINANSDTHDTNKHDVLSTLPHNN
Procedure, shortened: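 GST-tagged yeast TFs (full-length or DNA-binding domain) were made by PURExpress in vitro transcription/translation and applied at about 100-200 nM to universal all-10-mer Agilent arrays. The arrays were made double-stranded by primer extension, on fresh or once-stripped slides. Bound protein was detected with fluorescent anti-GST, and scans were normalised with masliner. Each ungapped eight-base word, pooled with its reverse complement, received an E-score (modified Wilcoxon-Mann-Whitney statistic) from the Universal PBM Analysis Suite.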

Sequence | PBM E-score
ATTTCCTG | 0.00514
CGAATGAA | 0.13
ATTGACAC | -0.00598
AAATCTGC | 0.0449
GCTCGCCC | -0.292
CGGAAGGA | -0.178
ACTGATAC | -0.0228
ATGGTTCA | 0.0998
GATAACTA | 0.0626
CTAGCATA | 0.00426
AACCCGTA | -0.132
CTGAGCGC | -0.13
AAGGAGTC | -0.258
AAATGGTA | 0.0911
CTTGATCC | -0.152
AAAATGCC | -0.0218
CCTTAGAA | 0.0918
GTTCACAA | 0.119
GCTGAGAC | -0.147
GATGCAAA | 0.0565
CGAGCTAA | -0.106
GCTAATGA | 0.0704
AGGCCTAT | -0.0177
GCTGGAGA | -0.23
AACATCCT | -0.0241

Sequence | PBM E-score
GATGCCGA | -0.112
GGCGTGAC | 0.213
ACACTTGC | 0.0209
GTATAACA | 0.255
AGACGGCT | -0.354
GCCGGGTA | -0.406
CGTCCGGC | -0.191
AAACCGGT | -0.262
CCGGTTCA | -0.155
GCGGTCCA | -0.323
GAGGTCAA | -0.139
GAAGAGGC | 0.0268
ATCCAACC | -0.0108
AGCGTAGG | -0.176
CATCTAGA | 0.0155
ACTTTTAG | -0.093
TGTTAACA | 0.0988
ACGTGTCG | 0.385
GATTCGGA | 0.167
GCTAGGAC | -0.112
TCCCTCAA | -0.255
GGATATAA | 0.156
CCTACCCA | -0.215
ATGGTCGC | -0.122
CATTGGCC | -0.175

Sequence | PBM E-score
ATACTCAG | 0.0206
CCATGATA | -0.0203
AGAGACCT | -0.0467
GTGCACCA | 0.0396
ACATAAGC | 0.119
ACACACAT | 0.171
GACTCTCA | -0.0645
GCCTCGGA | -0.318
CAGTTGAG | -0.211
ACACAGCC | -0.0588
GCTGCGAA | 0.0954
CGACACAA | -0.0807
AGATCACT | 0.0372
GGTTCTTA | -0.0107
TACGTCTA | 0.421
GGCCGGGA | -0.343
CAGATAGC | -0.186
AATCACAT | 0.178
AAGTACTT | -0.0466
AGGTCGTC | 0.00284
AAGCGTGG | -0.2
AGAACGCT | -0.0919
AAGAAATT | 0.0881
GACCTACA | -0.0568
GACACGGA | -0.224

Sequence | PBM E-score
CCAATACG | 0.329
TTCCAGAA | 0.0734
CTTACCCA | -0.132
GAGATACA | 0.0823
AGGATCAG | -0.183
CTGCAATA | 0.136
ACTTCAGC | -0.146
GATAGGAA | -0.0657
TGTGACAA | 0.0956
GGATTACC | 0.00812
ACAGCAAC | 0.038
GTTTCCTA | 0.11
ATCCTAAG | -0.156
AAAACGGA | 0.153
CATTGTAC | 0.11
CGTATCAC | 0.282
AAAGACGT | 0.448
CATGGTAG | -0.193
GATACAAA | 0.112
CAGCGGGG | -0.15
ATTATCGA | 0.0217
GGGGTCGA | -0.181
GACTGAGC | -0.171
CATCATAC | 0.377
ATATCGAG | 0.0118

Sequence | PBM E-score
ACGAAGCA | 0.152
CCCTCCTA | -0.253
AATGCTCT | 0.00824
GCAAATAC | 0.276
GCCTAGTA | -0.109
CATTATAA | 0.0479
AGAGTTAC | 0.101
GATGGAAC | -0.0249
AATGTTTG | 0.13
ACAGTTGG | -0.0101
AAGCATAG | -0.128
TAGACAGA | 0.0367
ACCGATTG | 0.167
GTAACGAA | 0.216
AACATGCT | 0.041
AGATTCAA | 0.0684
CAATATTG | 0.152
AATTGTCA | 0.184
CGGGGCCC | -0.187
CCCATACG | 0.143
CGTATGCA | 0.317
AAAAGAGT | -0.0223
AGAGAGGC | -0.353
CAGCCAGA | -0.312
GAAAGCTC | -0.146

Sequence | PBM E-score
GTACATGA | 0.184
GAGGGTCA | -0.182
CACCACGC | -0.0281
CATAAGCC | -0.0211
CAACGAGG | -0.123
CTGGCATA | -0.0856
TCTAGTCA | -0.0419
CAACGAGA | 0.157
CCGCGGTA | -0.258
GCTCTTAC | 0.18
TGCTCAAA | -0.0326
AATGTGGA | -0.0739
CATTCAGG | -0.212
ACAGGCAA | 0.0974
CATAGGGC | -0.266
GACGGGTA | -0.0399
ATTGCCAA | -0.0464
AGAGCGGC | 0.00213
ATATGATC | 0.134
GCCAAAGA | -0.0869
GTGAAGCA | -0.0321
GAATGCGC | -0.0347
CGGTGTGA | -0.0205
CCTGGGGA | -0.395
ATGACTAA | 0.114

Sequence | PBM E-score
ACCGATGC | -0.219
CAAGAGCG | -0.162
GTAGACAC | 0.0833
CAGGTAAA | 0.235
CACACCGA | 0.0399
GGTTGACA | -0.0383
ACATAACT | 0.0944
GCTGAGCC | -0.0522
AGAAAATG | 0.0406
AAGAAAGG | 0.00665
AGCTTCAG | -0.0984
CATGCGAG | -0.0364
ATCGAAGC | -0.0646
ACAGGGAT | -0.176
ACCAACCA | -0.0223
CAGGGACC | -0.198
CGTCGTTC | 0.236
AGCCCCAT | -0.225
CCATGGGA | -0.181
CTTCCGTC | 0.0378
CATGAGAA | 0.139
CCTGGGTA | -0.255
